Experimental data taken from the supplement of paper PMC11417369.
Some of the results follow.

tested on: PfHDP1 homeodomain (GST-tagged); test: gcPBM binding intensity (ln(normalized median fluorescence intensity)); higher = stronger DNA binding
In short: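 GST-fused DNA-binding domains of P. falciparum, expressed in E. coli, were applied at about 25 μg on average for 1 h to an Agilent 4 × 180k array of primer-extended double-stranded 36-bp intergenic genomic probes and negative controls. Binding intensity is the highest Masliner-normalised natural-log median intensity across replicate spots of either probe orientation, measured with Alexa488 anti-GST antibody and a 488 nm scan.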

Sequence | gcPBM binding intensity (ln)
AATTAACCGAAACACACACACATATATATATATATA [CACACA_site3963] | 9.38
TATACACACAGACATGCATGCACATATATATATACA [TGCATGCA_site30] | 9.14
AAATTAAAAGAAAATACACACCTGTGGGTGCTTATA [CACACA_site5143] | 5.73
TATTTATTCACTTATTGTACTTATATATATAATAAA [XGTACX_site6147] | 6.84
ATTTTTTTTTGTTTAATGTTATGTGGTCATTAAATT [CACACA_negctrl_site1177] | 6.83
TTATATTTATATGTAATACAAAATAACAAAAAATTT [CACACA_negctrl_site1721] | 6.08
TTGGTAATTTTAAAATGTACTTATTATATATATATA [XGTACX_site5642] | 8.48
TATATATATATATCCACACACATACATATATTAATA [CACACA_site69] | 9.38
TATACACTTGTAATAACACACATTATTTTTTTTTTT [CACACA_site1324] | 6.43
ATAAAAAATTTAAGTATTTTTTACAAACCTATAAAT [GTGCAC_negctrl_site51] | 6.09
TACTGCCTTCCATACCCACACACTTCCCATATATTT [CACACA_site2705] | 7.07
TCTAAAAATAAGAACACACACATATAAGCATATAAA [CACACA_site2274] | 6.82
AAAACGCTACATAATTGTACATGTAGAAATAAAAGC [XGTACX_site2895] | 6.98
ATTTAAAAAAAAAAAACACACATGTGAATAGAAAAG [CACACA_site3323] | 6.8
AGTATAATAATATTTACACACGCATATGTTATATAT [CACACA_site1476] | 6.8
ACTCTTGATCTGAATGCACACAATAAATTATATAAA [CACACA_site1438] | 9.32
AAAAATTTGGCATACACACACACACCCACACCCACA [CACACA_site587] | 6.72
TATGTATTTAAATTAACACACATATGTGGTTAATAG [CACACA_site5697] | 6.51
ATATATTATATATATTGTACATGTAAAATTTTAAAA [XGTACX_site7197] | 6.78

Sequence | gcPBM binding intensity (ln)
ACATATATATATATATATATATATATATCATTATGT [CACACA_negctrl_site724] | 7.44
TATGTGCACCCATGTACATGCGGACATATGTTATAT [TGCATGCA_site383] | 10.6
GATATTCATAGAAACACACATACAAATTATGTATAT [CACACA_site144] | 6.38
TTGCCCATTTAATTAACACACAAATATTTATATTCT [CACACA_site738] | 6.9
ATTTCCTTTTGTTTCAGTACATAATTTTTTTTTTTT [XGTACX_site4842] | 6.99
GTTAAATAATATATATGTACATACATAAGTGTTACT [XGTACX_site4778] | 6.37
TTTTTAAAGTTTTATACACACACCAAAATTATTCTA [CACACA_site600] | 6.92
TAATTGTACGCCAATACACACAGAATTAAAATGTAG [CACACA_site4234] | 6.73
TTTTACAATAATAAGTAGATCTAAATAAAGATTTAA [GTGCAC_negctrl_site547] | 6.19
AGTAGTCTGGAGAAAAGTACATAGTATCTGGTAACC [XGTACX_site2024] | 6.25
CATACAAATTAATATGTACACACAAATATATATATA [CACACA_site8605] | 8.6
AAAAAAAAAAAATAATGTACATATGTATTTGAGAAA [XGTACX_site3572] | 6.51
TTTATATTATTTAATGAGAAATAATTATAAACAATT [TGCATGCA_negctrl_site65] | 5.97
TTCCAAAATTGCACATGTACAAAATTCTCCAATATG [XGTACX_site3419] | 9.95
TTTTTTTTTTTTTTTTGTACATATTTTAATTTGTTT [XGTACX_site6297] | 6.27
ATGGCCACTGTGAAATGTACAAAAAAAAAATACAAT [XGTACX_site2874] | 6.68
TATGTATATATATATATATATATATATATATATATA [TGCATGCA_negctrl_site491] | 9.37
TTTCATAACAAAAAAGTGCAAAATAGCACGAACATT [GTGCAC_site9703] | 8.91
AGAAAAAGGAGAAAAAGTACAAAACGGAGTAGTATT [XGTACX_site3858] | 6.73

Sequence | gcPBM binding intensity (ln)
AAAAATTATATACATCATAGAATTAACATTTTAAAT [GTGCAC_negctrl_site369] | 6.05
AAATCAACGATCTATACATGCATATAATATATACAT [TGCATGCA_site25] | 6.26
TAATAATACCCTTGCTGTACCAAATAAAGTTGAATA [XGTACX_site6922] | 5.98
GTAGCAATAAACATATGTACATATATATATTTTTTC [XGTACX_site5814] | 6.7
ATTAAAAAGACAAAAAAAAAATTTTTTTTTTTTTTT [CACACA_negctrl_site1027] | 6
AAAAAAATACCATTCACACATATTCTTTTATTATTT [CACACA_site5113] | 6.35
AAAAAAAAAAAGTTTACACACATTAATTTTACATAT [CACACA_site834] | 6.21
TATGAGGAAACGTGGTGTACTTTTTTTTAATAAAAA [XGTACX_site1351] | 6.37
ATAAATATAATAATCATACACACCAAAGAGAATATT [CACACA_site1888] | 6.56
AAAGTTATTATGCAATAATTATGATAATTAATATAT [TGCATGCA_negctrl_site316] | 7.41
ATGACTTACATATATAGTACTTTGTTTTGGAGTTGC [XGTACX_site94] | 6.43
ACAAACAAAGAAAGAACACACATACACAATATACCT [CACACA_site5566] | 6.8
CATATAAAAATATATGCACACAAATAAAAAATTATA [CACACA_site9210] | 10
ATATTTAAATAATATTCACACACAAAATTATATTTT [CACACA_site7955] | 6.44
ATTTCTCAATCGTAATGTACAAAAAAAAGGGAAAAG [XGTACX_site2781] | 6.61
GCAGGATTGGTTCAAACACACATATTATATGACTAT [CACACA_site660] | 6.76
TTTTTTTTTTTTTTTGCACACACATAATAGGTACAA [CACACA_site3578] | 9.38
ATCTTATATGATCACACACACACGCACAAAACAGAA [CACACA_site4913] | 7.49
